Test results: US20130295093A1 (TOPOTARGET SWITZERLAND, published 2013)

Molecular target: T1, endogenous BAFF receptor in BJAB cells (human, UniProt Q96RJ3 1-184)
T1 construct: whole, on cells; also called hBAFF-R
T1 sequence (looked up): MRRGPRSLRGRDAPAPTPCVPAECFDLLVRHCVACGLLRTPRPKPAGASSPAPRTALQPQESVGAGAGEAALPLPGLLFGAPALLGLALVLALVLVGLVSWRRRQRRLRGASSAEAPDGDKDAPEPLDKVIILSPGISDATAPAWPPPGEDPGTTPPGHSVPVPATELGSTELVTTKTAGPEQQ
Experiment: flow cytometry on BAFF-R-positive BJAB cells, PE-conjugated anti-human Ig detection (FIG. 6A)

- binding result: binds
B1: Fc:BAFF (Fc fusion)
chain: not shown
notes: Used as cell supernatant in the ELISA and FACS, and at 3 ug in the immunoprecipitation; No chain number is stated for this construct
